Measurements taken from PubChem BioAssay AID881 (National Center for Advancing Translational Sciences (NCATS), 2007).
Screen size: about 110,000 compounds; about 610 (0.55%) were called active. The inconclusive results got no clear call from the source; some entries with a clear call stand among them for comparison. The call rests on the fitted dose curve; in most records, active means well fitted inhibition curve with a large enough effect; inconclusive means small, poorly fitted or top-dose-only effect; inactive means no such curve, though single readings can be large or run the other way. Potencies beside an inconclusive call are fits to weak or partial responses and may not hold up.

Target: Polyunsaturated fatty acid lipoxygenase ALOX15B (Homo sapiens) (UniProt O15296)
UniProt O15296, sequence (O15296 whole entry, looked up): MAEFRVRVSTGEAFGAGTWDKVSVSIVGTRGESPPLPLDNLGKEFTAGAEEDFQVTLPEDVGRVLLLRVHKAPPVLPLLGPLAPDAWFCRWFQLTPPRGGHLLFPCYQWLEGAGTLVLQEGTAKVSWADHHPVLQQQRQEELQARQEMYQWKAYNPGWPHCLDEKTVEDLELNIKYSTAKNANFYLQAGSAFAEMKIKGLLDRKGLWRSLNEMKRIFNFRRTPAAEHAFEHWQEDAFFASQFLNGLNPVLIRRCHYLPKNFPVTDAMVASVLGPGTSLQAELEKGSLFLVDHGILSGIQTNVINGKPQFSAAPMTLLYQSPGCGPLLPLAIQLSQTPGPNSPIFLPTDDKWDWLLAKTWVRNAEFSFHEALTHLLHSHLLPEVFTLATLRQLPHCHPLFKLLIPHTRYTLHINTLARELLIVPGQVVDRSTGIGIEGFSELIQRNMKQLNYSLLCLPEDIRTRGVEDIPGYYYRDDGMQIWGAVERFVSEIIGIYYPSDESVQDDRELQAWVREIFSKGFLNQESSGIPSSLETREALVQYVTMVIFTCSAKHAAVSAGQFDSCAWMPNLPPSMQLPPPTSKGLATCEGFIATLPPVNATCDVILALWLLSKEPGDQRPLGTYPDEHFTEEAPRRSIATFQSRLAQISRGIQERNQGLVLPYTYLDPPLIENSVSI
Test: qHTS Assay for Inhibitors of 15-hLO-2 (15-human lipoxygenase 2); further: nearly all actives have a fitted effect of over 60% in size
Conditions: purified 15hLO-2, xylenol orange hydroperoxide absorbance; activity change, negative = inhibition: at 57.1 µM (top of the series) unless noted
How it was run: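 Purified human 15hLO-2 (50 nM final) preincubated with compounds 15 min at room temperature in 25 mM Hepes pH 7.5, 0.01% Triton X-100, then 45 uM arachidonic acid added for 90 min; hydroperoxide detected via ferrous/xylenol orange, 573/405 nm absorbance ratio.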
On the % scale 0 is the no-effect control and ±100 the full control effect; potency means the concentration at half of the fitted maximal effect; tags describe the fitted curve by direction and shape.

With `Cc1c(/C=C2\SC(=O)N(CC(=O)Nc3ccc4c(c3)OCO4)C2=O)c2ccccc2n1C` as the molecule, how does the Potency read?
The Potency was inconclusive: 31.6 µM [inhibitor, single point].

`CCOC(=O)c1cc2c(ccn2C)n1CC(=O)N1CCCC(C)C1` (stereo not drawn) was tested. Which Potency did it give?
Its Potency is inconclusive: 0.126 µM [inhibitor, full curve, poor fit].

Which Potency does the source give for `COc1cc(/C=C2\SC(c3ccc(C)cc3)=NC2=O)cc(OC)c1O` here?
The Potency was inconclusive: 15.8 µM [inhibitor, partial curve].

With `O=C(NC1CS(=O)(=O)CC1NCc1ccco1)c1ccccc1` (stereo not drawn) as the molecule, how does the “activity change, negative = inhibition” value read?
Its value is inactive: -2%.

Which activity change, negative = inhibition does the source give for `C=C1c2cccc(C(F)(F)F)c2O[C@H](C(=O)OCC)C1OC` (mixture of isomers) here?
Its activity change, negative = inhibition is inactive: -6.27% [at 0.0915 µM].

`O=C(Nc1cccc(F)c1)N1CCCC2(CCN(C(=O)c3ccco3)CC2)C1` was tested. Which “activity change, negative = inhibition” value did it give?
The value was inactive: 26.7%.

With `Cc1cc(C)c(NC(=O)C(C)Sc2nc3ccc(N4C(=O)c5ccccc5C4=O)cc3s2)c(C)c1` (stereo not drawn) as the molecule, how does the Potency read?
The Potency was inconclusive: 15.8 µM [inhibitor, partial curve].

For `CC(Oc1ccc(Cl)cc1Cl)C(=O)NC1=NN(c2ccccc2)C(=O)C1` (stereo not drawn), which Potency is on record?
Its Potency is active: 7.94 µM.

With `c1cc2c3c(c1)c1c(n3CCNC2)CCCC1` as the molecule, how does the “activity change, negative = inhibition” value read?
The value was inactive: 54.2%.

`CCCCCC(=O)NC(=S)Nc1ccccc1C(=O)OC` was tested. Which Potency did it give?
The Potency was inconclusive: 25.1 µM [inhibitor, partial curve].

Which Potency does the source give for `C1=CC2c3ccccc3NC(c3ccncc3)C2C1` (stereo not drawn) here?
The Potency was inconclusive: 1.26 µM [inhibitor, full curve, poor fit].

`COc1cccc(-c2csc(N3CCN(C(=S)Nc4cccc(Cl)c4)CC3)n2)c1` was tested. Which Potency did it give?
Its Potency is inconclusive: 20 µM [inhibitor, single point].

How did the Potency turn out when `O=C(NC(=S)NCCc1ccccc1)c1ccccc1` was run?
Its Potency is active: 12.6 µM.

`N#CC1=C(SCc2ccccc2)NC(=O)CC1c1ccco1` (stereo not drawn) was tested. Which Potency did it give?
The Potency was inconclusive: 39.8 µM [inhibitor, single point].

For `CCC1(C)Cc2c(C#N)c(N)sc(=S)c2CO1` (stereo not drawn), which Potency is on record?
Its Potency is inconclusive: 15.8 µM [inhibitor, single point].

`COc1ccc(CCNC(=S)Nc2ccccc2C)cc1` was tested. Which Potency did it give?
The Potency was inconclusive: 31.6 µM [inhibitor, single point].

For `Cc1nn(CCc2nc(-c3ccco3)cs2)c2[nH]c(=O)cc(C(F)(F)F)c12`, which Potency is on record?
Its Potency is inconclusive: 15.8 µM [inhibitor, partial curve].

`O=C(C1CCCN(Cc2ccccc2Br)C1)N1CCCCC1` (stereo not drawn) was tested. Which “activity change, negative = inhibition” value did it give?
The value was inactive: -13%.

With `CC(=O)Nc1ccc(NC(=O)CC2Nc3cccc4cccc(c34)NC2=O)cc1` (stereo not drawn) as the molecule, how does the Potency read?
Its Potency is inconclusive: 20 µM [inhibitor, partial curve, poor fit].

For `C[C@@H]1O[C@@H](O)[C@@H](O)[C@H](O)[C@H]1O`, which activity change, negative = inhibition is on record?
The activity change, negative = inhibition was inactive: -2.16% [at 11.4 µM].

Which Potency does the source give for `CNC(=O)c1ccc(-c2sc3nc(N4CCOCC4)c4c(c3c2N)CCCC4)o1` here?
The Potency was inconclusive: 12.6 µM [inhibitor, partial curve].

Which “activity change, negative = inhibition” value does the source give for `COC(=O)c1ccccc1NC(=O)C1CCCN(S(=O)(=O)c2ccccc2)C1` (stereo not drawn) here?
Its value is inactive: -2.57%.

`O=[N+]([O-])/C=C/c1cn(Cc2ccccc2)c2ccccc12` was tested. Which Potency did it give?
Its Potency is inconclusive: 12.6 µM [inhibitor, partial curve].

For `Cc1c(NS(=O)(=O)c2cccs2)c(=O)n(-c2ccccc2)n1C`, which “activity change, negative = inhibition” value is on record?
Its value is inactive: 4.49%.

How did the “activity change, negative = inhibition” value turn out when `Nc1nc(=O)n(C2OC(CO)C(O)C2O)cc1Cl` (stereo not drawn) was run?
Its value is inactive: 0.885%.

`CCC(C)C(=O)OC1CCC=C2C=CC(C)C(CCC3CC(O)CC(=O)O3)[C@@H]21` (stereo partly drawn) was tested. Which “activity change, negative = inhibition” value did it give?
Its value is inactive: 1.12%.

With `N#Cc1cccc(-c2cc(NCc3cccs3)ncn2)c1` as the molecule, how does the “activity change, negative = inhibition” value read?
Its value is inactive: 7.57%.

With `CCCC(=O)NC(=S)Nc1ccccc1C(=O)OC` as the molecule, how does the “activity change, negative = inhibition” value read?
Its value is inactive: -10.2%.

For `O=C(NC(=S)Nc1ccc(Oc2ccc(Cl)cc2)cc1)c1ccccc1`, which Potency is on record?
Its Potency is inconclusive: 12.6 µM [inhibitor, partial curve, poor fit].

With `COCCNC(=O)CN(c1ccc(OC)c(OC)c1)S(=O)(=O)c1ccc(C)cc1` as the molecule, how does the “activity change, negative = inhibition” value read?
Its value is inactive: -4.51%.

How did the Potency turn out when `CCN=c1scc(-c2ccco2)n1/N=C/c1ccc(O)cc1` was run?
Its Potency is inconclusive: 25.1 µM [inhibitor, partial curve].

With `CC(CCC(=O)O)C1CCC2C3CC[C@H]4CC(O)CC[C@@]4(C)C3C=C[C@]12C` (stereo partly drawn) as the molecule, how does the Potency read?
Its Potency is inconclusive: 20 µM [inhibitor, partial curve].

With `COCCSc1ccccc1C(=O)Nc1nccs1` as the molecule, how does the Potency read?
Its Potency is inconclusive: 20 µM [inhibitor, partial curve].

`CC(N1CCOC1=O)S(=O)(=O)c1ccccc1` (stereo not drawn) was tested. Which Potency did it give?
Its Potency is inconclusive: 31.6 µM [inhibitor, single point].

With `COc1cc2c(cc1OC)C(=O)N(C)CC2` as the molecule, how does the “activity change, negative = inhibition” value read?
The value was inactive: -5.15%.

`CC(=O)c1cccc(NC(=O)c2c(F)c(F)c(F)c(F)c2F)c1` was tested. Which Potency did it give?
Its Potency is inconclusive: 15.8 µM [inhibitor, partial curve].

With `COc1ccc(CCn2c(-c3ccco3)nc3nc4ccccc4nc32)cc1` as the molecule, how does the Potency read?
Its Potency is inconclusive: 15.8 µM [inhibitor, partial curve].

`O=C(Nc1ccc(NC(=O)c2ccco2)cc1)c1ccc2c(c1)OCO2` was tested. Which Potency did it give?
Its Potency is inconclusive: 20 µM [inhibitor, single point].

Which “activity change, negative = inhibition” value does the source give for `CCOC(=O)CSc1nc(C)cc(=O)[nH]1` here?
The value was inactive: 0.251%.

Which “activity change, negative = inhibition” value does the source give for `CCS(=O)(=O)N1CCC(C(=O)NCCC2=CCCCC2)CC1` here?
Its value is inactive: 12.5%.

Which Potency does the source give for `Nc1ccc(C(=O)N/N=C\c2cc(N=Nc3cccc4ccccc34)ccc2O)cc1` here?
The Potency was inconclusive: 39.8 µM [inhibitor, single point].

Which Potency does the source give for `COc1ccc(NC(=O)C2CCCN2c2ccc(OC)c(OC)c2)cc1OC` (stereo not drawn) here?
Its Potency is inconclusive: 12.6 µM [inhibitor, partial curve].

Which “activity change, negative = inhibition” value does the source give for `Cc1[nH]nc2c1C(c1ccccc1F)NC2=O` (stereo not drawn) here?
The value was inactive: -3.32%.

Which activity change, negative = inhibition does the source give for `Clc1ccc(/C=C\c2nc(Cl)c(-c3ccc(Cl)cc3)c(Cl)n2)cc1` here?
The activity change, negative = inhibition was inactive: -15.7% [at 11.4 µM].

With `CCOC(=O)c1ccc(NC(=S)NCCc2ccccc2)cc1` as the molecule, how does the Potency read?
Its Potency is inconclusive: 20 µM [inhibitor, partial curve].

With `CC1=CC(=O)[C@@H]2C[C@H]1C2(C)C` as the molecule, how does the “activity change, negative = inhibition” value read?
Its value is inactive: -4.99%.

`CC(=O)/C(=N/Nc1cccc(C)c1)N1CCOCC1` was tested. Which Potency did it give?
The Potency was inconclusive: 2.51 µM [inhibitor, partial curve].

For `CCCSC1=N/C(=C\C=C\c2ccco2)C(=O)S1`, which Potency is on record?
The Potency was active: 25.1 µM.

`O=C(c1ccccc1)N1CC(COc2ccccc2)OC(c2ccco2)O1` (stereo not drawn) was tested. Which Potency did it give?
The Potency was inconclusive: 15.8 µM [inhibitor, single point].

`CCOc1ccc(C2C(C#N)=C(N)SC(N)=C2C#N)cc1OC` was tested. Which Potency did it give?
Its Potency is inconclusive: 20 µM [inhibitor, partial curve].

Which Potency does the source give for `CCOC(=O)C1=C(O)C(=O)N(Cc2ccccc2)C1` here?
Its Potency is inconclusive: 15.8 µM [inhibitor, partial curve].

`Cc1nn(-c2ccccc2)c2c1C1(C(=O)N(C(C)C)c3ccccc31)C(C#N)=C(N)O2` (stereo not drawn) was tested. Which Potency did it give?
The Potency was inconclusive: 25.1 µM [inhibitor, single point].

With `COc1ccc2[nH]c(=O)c(CN(C3CCCCC3)C(c3nnnn3Cc3ccco3)C(C)C)cc2c1` (stereo not drawn) as the molecule, how does the Potency read?
Its Potency is inconclusive: 10 µM [inhibitor, partial curve].

Which Potency does the source give for `O=C1/C(=C\c2ccco2)SC(=S)N1Cc1ccccc1` here?
Its Potency is inconclusive: 31.6 µM [inhibitor, single point].

With `CCCc1ccc(OCc2nc(-c3ccc(NC(=O)c4ccco4)cc3)no2)cc1` as the molecule, how does the Potency read?
Its Potency is inconclusive: 31.6 µM [inhibitor, single point].

How did the Potency turn out when `Cc1sc(-n2c(C)cc(/C=N/n3cnnc3)c2C)c(C#N)c1C` was run?
The Potency was inconclusive: 31.6 µM [inhibitor, single point].

How did the Potency turn out when `CCOC(=O)c1cc2c(C)n(-c3ccc(C)cc3)c(C)c2ccc1=O` was run?
The Potency was inconclusive: 25.1 µM [inhibitor, partial curve].

With `Cc1cc(NC2CCCCC2)nc(-c2ccccc2O)n1` as the molecule, how does the “activity change, negative = inhibition” value read?
The value was inactive: 4.72%.

`COc1ccc(/C=C2\SC(c3ccc(C)cc3)=NC2=O)cc1OC` was tested. Which Potency did it give?
Its Potency is inconclusive: 25.1 µM [inhibitor, single point].

How did the Potency turn out when `O=C(CCN1C(=O)/C(=C\c2ccccc2Cl)SC1=S)N1CCN(c2ccccc2)CC1` was run?
Its Potency is inconclusive: 15.8 µM [inhibitor, partial curve].

How did the Potency turn out when `CCC(=S)/C=C1\Sc2ccccc2N1CCCS(=O)(=O)O` was run?
Its Potency is inconclusive: 20 µM [inhibitor, partial curve].

`CC(C)(C)c1ccc(OCC(=O)NCc2ccco2)c(Br)c1` was tested. Which Potency did it give?
Its Potency is inconclusive: 15.8 µM [inhibitor, partial curve].

Which Potency does the source give for `Cc1cccn2c(=O)c3cc(C#N)c(=NC(=O)c4ccncc4)n(CCCOC(C)C)c3nc12` here?
Its Potency is inconclusive: 31.6 µM [inhibitor, single point].

How did the “activity change, negative = inhibition” value turn out when `c1ccncc1` was run?
The value was inactive: -4.95%.

Which Potency does the source give for `COc1ccc(-c2nc3n(c2Br)CCC3)cc1` here?
Its Potency is inconclusive: 0.199 µM [inhibitor, full curve, poor fit].

Which Potency does the source give for `COc1ccc(OC)c(C2CC(=O)N3CN(c4cccc(Cl)c4)CSC3=C2C#N)c1` (stereo not drawn) here?
The Potency was inconclusive: 39.8 µM [inhibitor, single point].

`CCOc1cc(C2CC(=O)Nc3cc(C)c(C)cc32)ccc1O` (stereo not drawn) was tested. Which “activity change, negative = inhibition” value did it give?
Its value is inactive: -3.52%.

`CC(C)(C)c1ccc(NC(=S)NCc2cccs2)cc1` was tested. Which Potency did it give?
Its Potency is inconclusive: 25.1 µM [inhibitor, single point].

Which activity change, negative = inhibition does the source give for `N#Cc1cc(-c2ccccc2)oc1/N=C/c1ccccc1O` here?
The activity change, negative = inhibition was inconclusive: -35.5% [inhibitor] [at 11.4 µM].

Which Potency does the source give for `COc1ccc(N2CCN(C(=O)CSc3ccccc3N)CC2)cc1` here?
Its Potency is inconclusive: 31.6 µM [inhibitor, single point].

How did the Potency turn out when `COc1cc2c(cc1NC(=S)Nc1cccc(C(F)(F)F)c1)oc1ccccc12` was run?
Its Potency is inconclusive: 20 µM [inhibitor, partial curve].

`O=C(NCCc1cccs1)C1CC(c2c(Cl)cccc2Cl)=NO1` (stereo not drawn) was tested. Which “activity change, negative = inhibition” value did it give?
Its value is inactive: -5.15%.

With `O=S1(=O)C=C(Sc2nc3ccccc3s2)c2ccccc21` as the molecule, how does the “activity change, negative = inhibition” value read?
The value was inactive: -20.6%.
